Laboratory results as given in ChEMBL document CHEMBL1132007, “The synthesis and biological evaluation of non-peptidic matrix metalloproteinase inhibitors” (Bioorg Med Chem Lett, 1999).

Assays:
Interstitial collagenase = molecular target: T1, Interstitial collagenase (Homo sapiens, UniProt P03956)
T1 sequence (P03956 whole entry): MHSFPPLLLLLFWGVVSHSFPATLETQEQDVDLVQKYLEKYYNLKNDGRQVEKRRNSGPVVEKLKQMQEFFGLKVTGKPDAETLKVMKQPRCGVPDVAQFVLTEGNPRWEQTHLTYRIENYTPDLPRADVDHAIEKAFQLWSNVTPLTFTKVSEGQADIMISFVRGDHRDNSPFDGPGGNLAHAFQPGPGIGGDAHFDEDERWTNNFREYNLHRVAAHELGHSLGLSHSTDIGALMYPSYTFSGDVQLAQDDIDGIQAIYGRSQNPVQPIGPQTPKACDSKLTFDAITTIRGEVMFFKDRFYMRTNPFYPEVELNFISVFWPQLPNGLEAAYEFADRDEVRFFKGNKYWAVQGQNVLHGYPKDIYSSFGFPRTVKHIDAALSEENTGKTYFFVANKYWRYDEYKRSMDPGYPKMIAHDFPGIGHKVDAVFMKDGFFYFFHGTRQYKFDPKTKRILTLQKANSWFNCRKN

Neutrophil collagenase = Neutrophil collagenase (Homo sapiens, UniProt P22894)
Collagenase 3 = Collagenase 3 (Homo sapiens, UniProt P45452)
Stromelysin-1 = Stromelysin-1 (Homo sapiens, UniProt P08254)
[1] = molecular target: 72 kDa type IV collagenase (Homo sapiens, UniProt P08253)
in vivo = conditions: rat, po
Rattus norvegicus = organism: Rattus norvegicus; conditions: in vivo, po

SMILES	IC50 (Interstitial collagenase) [µM]	IC50 (Neutrophil collagenase) [µM]	IC50 (Collagenase 3) [µM]	further results
CN(C)c1cccc2c(S(=O)(=O)N(C)C[C@H](C(=O)NO)[C@@H](CC3CCCC3)C(=O)N3CCCCC3)cccc12	0.002	–	–	–
CC(C)C[C@@H](C(=O)N(C)C)[C@H](CN(C)S(C)(=O)=O)C(=O)NO	–	4	–	–
CC(C)C[C@@H](C(=O)N1CCCCC1)[C@H](CN(C)S(=O)(=O)c1cccc2c(N(C)C)cccc12)C(=O)NO	0.006	0.01	–	–
CS(=O)(=O)N(C[C@H](C(=O)NO)[C@@H](CC1CCCC1)C(=O)N1CCCCC1)C1CCCC1	0.02	0.2	0.2	–
COc1ccc(S(=O)(=O)N(C)C[C@H](C(=O)NO)[C@@H](CC(C)C)C(=O)N2CCCCC2)cc1	0.08	0.02	0.1	–
CC(C)N(C[C@H](C(=O)NO)[C@@H](CC1CCCC1)C(=O)N1CCCCC1)S(C)(=O)=O	–	0.1	0.6	–
CN(C[C@H](C(=O)NO)[C@@H](CC1CCCC1)C(=O)N1CCCCC1)S(=O)(=O)C(F)(F)F	–	0.01	0.04	–
COc1ccc(S(=O)(=O)N(C)C[C@H](C(=O)NO)[C@@H](CC2CCCC2)C(=O)N2CCCCC2)cc1	0.01	0.003	–	–
CC(C)C[C@@H](C(=O)N1CCOCC1)[C@H](CN1C(=O)c2ccccc2C1=O)C(=O)NO	–	–	0.1	IC50 (Stromelysin-1): 5 µM; IC50 [1]: 2 µM
CCCN(C[C@H](C(=O)NO)[C@@H](CC1CCCC1)C(=O)N1CCCCC1)S(C)(=O)=O	–	0.09	0.2	–
COc1ccc(S(=O)(=O)N(C)C[C@H](C(=O)NO)[C@@H](CC2CCCC2)C(=O)N2CCOCC2)cc1	–	0.003	0.02	–
CN(C[C@H](C(=O)NO)[C@@H](CC1CCCC1)C(=O)N1CCCCC1)S(=O)(=O)c1ccc(Cl)cc1	–	0.004	0.01	–
CC(C)C[C@@H](C(=O)N1CCCCC1)[C@H](O)C(=O)NO	–	–	–	IC50 [1]: 0.5 µM
CS(=O)(=O)N(C[C@H](C(=O)NO)[C@@H](CC1CCCC1)C(=O)N1CCCCC1)C1CC1	–	0.04	–	–
CCS(=O)(=O)N(C)C[C@H](C(=O)NO)[C@@H](CC(C)C)C(=O)N1CCCCC1	0.05	0.1	–	–
CN(C[C@H](C(=O)NO)[C@@H](CC1CCCC1)C(=O)N1CCCCC1)S(=O)(=O)c1cccc2ccccc12	–	0.004	0.008	–
CN(C[C@H](C(=O)NO)[C@@H](CC1CCCC1)C(=O)N1CCOCC1)S(C)(=O)=O	–	0.02	–	–
CN(C[C@H](C(=O)NO)[C@@H](CC1CCCC1)C(=O)N1CCCCC1)S(C)(=O)=O	–	–	0.4	–
CC(C)C[C@@H](C(=O)N1CCCCC1)[C@H](CN(C)S(C)(=O)=O)C(=O)NO	–	0.1	–	–
CCS(=O)(=O)N(C)C[C@H](C(=O)NO)[C@@H](CC1CCCC1)C(=O)N1CCCCC1	0.006	0.01	0.04	–
CN(C)S(=O)(=O)N(C)C[C@H](C(=O)NO)[C@@H](CC1CCCC1)C(=O)N1CCCCC1	0.006	0.01	0.04	Cmax at 6 h (in vivo): 0.0475 µg/mL; AUC (Rattus norvegicus): 904 ng/mL/h
CC(C)S(=O)(=O)N(C)C[C@H](C(=O)NO)[C@@H](CC1CCCC1)C(=O)N1CCCCC1	–	0.009	0.04	–
